Measured values taken from US20110207670A1 (Eli Lilly, published 2011).

B1: human TMD2 (wild-type soluble human thrombomodulin truncated immediately after EGF6, without signal peptide) (receptor)
chain: not shown
notes: also called sTMD2; sTM
B2: TMD[…]A (TMD2 in which the isoleucine at position 424 is substituted with alanine) (receptor)
chain: not shown
notes: Biotinylated with NHS-LC-Biotin and immobilized on a streptavidin chip for the BIAcore assay; also called sTMD[…]A; sTM variant I424A

Key:
[1] = target: human thrombin (PPACK-inhibited, Enzyme Research Laboratories) (human, UniProt P00734 part only); assay: BIAcore (SPR), biotinylated sTM on SA chip, PPACK-inhibited human thrombin as analyte, steady-state 1:1 fit
Experimental: The thrombin binding properties of various human sTM variants are determined using a BIAcore biosensor 2000 instrument. All measurements are performed at room temperature. All experiments are performed in HBS-P (10 mM HEPES, pH 7.4, containing 150 mM NaCl) buffer containing 5 mM CaCl₂. For all binding experiments, biotinylated sTM variants are immobilized on an SA (streptavidin-coated) sensor chip at a level of 200 to 300 response units (RU). Biotinylated sTM variants are prepared by incubating 10 μM sTM variant (0.5 mL) with 50 μM NHS-LC-Biotin for 2 hours at room temperature, followed by dialysis against phosphate buffered saline overnight. The binding of human thrombin (PPACK-inhibited, Enzyme Research Laboratories), mouse thrombin, and rat thrombin are tested.
The binding of thrombin is evaluated using multiple analytical cycles. Each cycle is performed at a flow rate of 100 μL/minute and consists of the following steps: injection of 250 μL of a solution of varying thrombin concentration with two injections for each concentration followed by a 1 minute delay for dissociation. Following the dissociation phase, the biosensor chip surface was regenerated using an injection of 50 μL of 5 mM EDTA, followed by similar injection of running buffer. Concentrations of thrombin ranged from 200 nM to 1.6 nM, and were prepared by serial, two-fold dilutions, starting with 200 nM thrombin. […]

human thrombin = human thrombin (human, UniProt P00734 part only); assay: protein C activation by thrombin/sTM, kinetic chromogenic assay (TLD=Too Low for Detection; sTM 0 to 250 nM)
Experimental: A kinetic analysis is done to determine the rate of activation of human protein C by human sTM variants. For each sTM variant, the reactions are set up as follows. In a final 100 μL reaction volume, human protein C is added to a final concentration of 150 nM and human thrombin is added to a final concentration of 2 nM. sTM controls TMD1 and TMD2 or an sTM variant in AB/BSA buffer (150 mM NaCl; 20 mM Tris pH 7.5; 3 mM CaCl₂; 1 mg/mL BSA) is added to the reaction at final concentrations varying from 0 nM to 250 nM. The reaction mixture is incubated 30 minutes at 37° C. 25 μL of each reaction is removed to a 96 well plate containing 150 μL of Thrombin Stop Buffer (1 unit/ml hirudin in 150 mM NaCl; 20 mM Tris pH 7.5; 3 mM CaCl₂) and incubated for 5 minutes at room temperature. 25 μL of a 4 μM stock solution of S2366 chromogenic substrate (L-Pyroglutamyl-L-prolyl-L-arginine-p-Nitroaniline hydrochloride, Chromogenix) is added and mixed briefly. The Optical Density at 405 nm (OD405) is read on a microplate spectrophotometer in a five minute kinetic read with a 6 second read interval. Michaelis Menton kinetic constants are calculated from the kinetic data using SigmaPlot software with the Enzyme Kinetics Module 1.1. This method was based in part on the protocol described in Grinnell et al., 1994 Biochem J. 303: 929-933.

Binder	Kd [1] [nM]	binding result (human thrombin)
B1	10.1	–
B2	–	no binding
